Measured values reported in PubChem BioAssay AID588591 (National Center for Advancing Translational Sciences (NCATS), 2011).
Among all 390,000 compounds or so, about 4,700 (1.2%) were called active. The shares of active, inactive and inconclusive entries below differ from those in the screen. The call rests on the fitted dose curve; in most records, active means well fitted inhibition curve with a large enough effect; inconclusive means small, poorly fitted or top-dose-only effect, or another doubt; inactive means no such curve, though single readings can be large or run the other way. Where the call is inconclusive, the potency comes from a doubtful curve fit.

Target: DNA polymerase eta (Homo sapiens) (UniProt Q9Y253)
UniProt Q9Y253, sequence (Q9Y253 whole entry, looked up): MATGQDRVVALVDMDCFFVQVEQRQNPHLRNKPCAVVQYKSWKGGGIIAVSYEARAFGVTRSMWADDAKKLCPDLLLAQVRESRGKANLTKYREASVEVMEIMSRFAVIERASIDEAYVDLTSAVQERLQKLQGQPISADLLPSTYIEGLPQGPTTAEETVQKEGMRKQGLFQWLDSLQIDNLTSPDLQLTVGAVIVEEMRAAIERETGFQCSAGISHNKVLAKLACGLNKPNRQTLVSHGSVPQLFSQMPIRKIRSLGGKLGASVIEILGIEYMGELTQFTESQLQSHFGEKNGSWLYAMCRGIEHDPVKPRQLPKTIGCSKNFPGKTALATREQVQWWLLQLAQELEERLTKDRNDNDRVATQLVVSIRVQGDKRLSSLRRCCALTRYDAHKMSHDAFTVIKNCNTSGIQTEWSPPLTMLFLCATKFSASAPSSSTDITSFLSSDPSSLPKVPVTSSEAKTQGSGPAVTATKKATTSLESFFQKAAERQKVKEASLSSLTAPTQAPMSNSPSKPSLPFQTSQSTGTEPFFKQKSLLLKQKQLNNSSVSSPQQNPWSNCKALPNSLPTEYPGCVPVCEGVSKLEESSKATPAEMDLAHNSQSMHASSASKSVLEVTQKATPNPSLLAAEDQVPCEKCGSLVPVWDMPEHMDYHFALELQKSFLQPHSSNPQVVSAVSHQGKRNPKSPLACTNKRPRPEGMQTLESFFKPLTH
Assay: qHTS for Inhibitors of Polymerase Eta
Conditions: recombinant Pol eta, fluorescent DNA replication assay; series mostly up to 114 µM
How it was run: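 Pol eta (10 nM) was preincubated with compounds for 15 min at room temperature, after which fluorescent replication substrate (50 nM final) was added to start the reaction. Fluorescence was read kinetically at 0 and 10 min.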
Potency means the concentration at half of the fitted maximal effect; tags describe the fitted curve by direction and shape.

| SMILES | Potency |
| --- | --- |
| CC1=NNC(=O)/C1=C\c1cn(-c2ccccc2)nc1-c1ccc(F)cc1 | inactive |
| O=C(O)C1Oc2cc3ccccc3cc2O1 | active: 17.8 µM |
| COc1ccc(N2CCN(CCNS(=O)(=O)c3cccc4nsnc34)CC2)cc1 | inconclusive: 3.55 µM [inhibitor, partial curve, poor fit] |
| Cc1cc(C(=O)COC(=O)c2cc(O)c3ccccc3c2O)c(C)n1CC1CCCO1 (centres undefined) | inactive |
| O=C(COc1ccc(Cl)cc1)Nc1nnc(S(=O)(=O)N2CCc3ccccc32)s1 | inconclusive: 89.1 µM [inhibitor, single point] |
| Cc1ccc2c(=O)cc(C(=O)Nc3nc4ccc(Cl)cc4s3)oc2c1C | active: 79.4 µM |
| N#Cc1ccc(-c2ccc(OCC(=O)NCC(=O)Nc3ccc(F)c(F)c3F)cc2)cc1 | inconclusive: 39.8 µM [inhibitor, single point] |
| Cc1ccc(-c2cc(C(=O)NCc3ccco3)c3ccccc3n2)o1 | active: 7.94 µM |
| CCOc1cc(N2CCOCC2)c(OCC)cc1NC(=O)COc1ncnc2ccc(Br)cc12 | inconclusive: 8.91 µM [inhibitor, partial curve] |
| Cc1ccc(S(=O)(=O)c2ccc(Oc3cccc(C)c3)cc2)cc1 | inactive |
| CCCCCN1CC(O)=C(c2nc(-c3ccc(Cl)cc3)cs2)C1=N | inconclusive: 70.8 µM [inhibitor, partial curve, poor fit] |
| COC(=O)c1cn(CCOc2ccccc2OC)c2ccccc12 | inconclusive: 79.4 µM [inhibitor, partial curve, poor fit] |
| CCSc1nc2ccccc2n1C(=O)/C=C/c1ccc(OC)c(OC)c1 | inconclusive: 39.8 µM [inhibitor, partial curve, poor fit] |
| Oc1ccccc1/C=N/Nc1ccnc(SCc2ccccc2)n1 | inconclusive: 56.2 µM [inhibitor, partial curve, poor fit] |
| Cc1nc2nc(CSc3ccc(Cl)cc3)cc(=O)n2[nH]1 | inconclusive: 44.7 µM [inhibitor, partial curve, poor fit] |
| Nc1cc2nc3ccccc3oc-2cc1=O | inconclusive: 79.4 µM [inhibitor, partial curve] |
| C1=C(c2ccc(-c3ccccc3)cc2)Nc2ncnn2C1c1ccco1 (centres undefined) | inconclusive: 17.8 µM [inhibitor, full curve] |
| Cc1c(C(=O)O)cccc1-n1c(C)cc(/C=N/Nc2ccc([N+](=O)[O-])cn2)c1C | inconclusive: 56.2 µM [inhibitor, partial curve, poor fit] |
| NC(=O)c1ccsc1NC(=O)COC(=O)C1CCCN1C(=O)c1cccs1 (centres undefined) | inconclusive: 28.2 µM [inhibitor, single point] |
